# Measured values published in the supplement of paper PMC3334620.
# Whole data set: some 33,000 sequences, median “E-score (-0.5 to 0.5)” near -0.043, cut for the highest 2% near 0.37. Some of the results follow.
# Target: T1, Upc2 (UniProt Q12151)
# T1 sequence: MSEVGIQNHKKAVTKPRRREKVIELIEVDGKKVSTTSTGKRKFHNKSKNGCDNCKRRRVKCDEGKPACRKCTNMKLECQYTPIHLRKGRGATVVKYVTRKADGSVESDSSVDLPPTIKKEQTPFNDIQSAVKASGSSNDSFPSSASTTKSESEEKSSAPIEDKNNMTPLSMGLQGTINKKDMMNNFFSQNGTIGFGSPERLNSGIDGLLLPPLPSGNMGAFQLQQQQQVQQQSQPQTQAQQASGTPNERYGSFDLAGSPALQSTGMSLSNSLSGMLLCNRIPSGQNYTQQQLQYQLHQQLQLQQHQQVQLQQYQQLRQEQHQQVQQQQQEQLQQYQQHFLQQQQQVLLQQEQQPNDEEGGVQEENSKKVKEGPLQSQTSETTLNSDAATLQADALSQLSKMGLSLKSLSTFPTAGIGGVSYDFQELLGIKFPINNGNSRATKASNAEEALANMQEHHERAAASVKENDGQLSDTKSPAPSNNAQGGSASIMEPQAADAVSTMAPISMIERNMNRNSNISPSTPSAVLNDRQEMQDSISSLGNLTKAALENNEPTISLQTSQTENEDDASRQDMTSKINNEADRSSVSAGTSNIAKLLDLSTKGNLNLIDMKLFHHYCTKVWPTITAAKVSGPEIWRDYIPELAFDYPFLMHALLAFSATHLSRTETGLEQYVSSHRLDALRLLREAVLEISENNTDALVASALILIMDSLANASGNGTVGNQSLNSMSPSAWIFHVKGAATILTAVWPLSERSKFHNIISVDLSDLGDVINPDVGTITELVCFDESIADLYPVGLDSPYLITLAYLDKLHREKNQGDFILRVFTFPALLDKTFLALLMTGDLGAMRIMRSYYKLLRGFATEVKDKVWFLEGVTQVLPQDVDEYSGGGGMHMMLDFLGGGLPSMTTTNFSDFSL
# Experiment: PBM E-score (8-mer binding enrichment) (E-score (-0.5 to 0.5)); higher = stronger / more preferred TF binding; most listed sequences are background and not binding sites
# Settings: protein concentration: 200 nM; construct: GST-full length
# In short: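 Using PURExpress in vitro transcription/translation, GST-tagged yeast transcription factors were made in full-length or DNA-binding-domain form. These were applied at about 100-200 nM to double-stranded universal all-10-mer Agilent arrays, and bound protein was detected with fluorescent anti-GST. Scans were normalised with masliner before the Universal PBM Analysis Suite assigned E-scores to ungapped eight-base words pooled with their reverse complements.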
row,Sequence,PBM E-score
1,GGATTAAA,-0.0169
2,GCGGTTGA,-0.0408
3,ATTTAGTA,0.0218
4,TCTGGCCA,-0.105
5,ATGGGGCG,-0.17
6,ATCGACGC,-0.00833
7,GCGATACC,-0.131
8,CCTTAGCA,-0.336
9,AGAACTGA,0.0936
10,AAACGTAT,0.328
11,ACTGGCAA,-0.126
12,ACCGTAAA,0.368
13,AAATGTGG,-0.107
14,GCGCAAAA,-0.0337
15,AGGCGGCC,-0.229
16,AGGTCGAC,-0.16
17,ACTTGCAC,-0.185
18,AGACCACC,-0.212
19,AAGTTCAT,-0.183
20,CACGTTGC,-0.0178
21,AGGGAGTA,-0.238
22,GGACCCCC,-0.293
23,GAGCGCGC,0.0196
24,CATCCAAG,-0.331
25,GCTAGTTA,-0.0367

row,Sequence,PBM E-score
1,CCTTCAAG,-0.223
2,AGCACGAT,0.0297
3,AAGGGTAG,-0.266
4,AGCGCGGA,-0.111
5,CTTTGCCC,-0.114
6,ACGCACTA,0.0867
7,ATGTATGG,-0.176
8,CCCCTGAA,-0.00284
9,AGACCCCC,-0.223
10,ATCTATTA,-0.0156
11,ATTCTATG,-0.243
12,AGGATATG,-0.159
13,ATACCGAA,0.273
14,TGAACAAA,0.135
15,ATACGGGC,0.426
16,CAGTCTGG,-0.231
17,GCAGAATA,0.0427
18,CAACTCAC,-0.252
19,ACGAGCCC,0.358
20,AAGTTCCT,0.00251
21,AGTACTAA,-0.0785
22,AAGACACG,0.154
23,AGTCCGTC,-0.208
24,AGATTCCA,-0.0417
25,ATGTTCAA,-0.0877

row,Sequence,PBM E-score
1,CGTGGTTA,0.0791
2,CCGCCTTA,-0.12
3,CAGGTTGG,-0.0343
4,ACAATGCA,-0.0758
5,CCGCACGG,-0.178
6,CGAAAGCC,-0.156
7,TATATGAA,0.104
8,GAGGTATA,0.144
9,ACGATGCA,0.344
10,ATAGTAGA,-0.0157
11,ACTGTTGA,-0.185
12,AGTATCTG,-0.211
13,GAGCTCGA,0.229
14,ATGCCCTC,-0.0626
15,CTACAGAA,0.0595
16,ATCATCGC,0.0369
17,CCTTTGTC,-0.0379
18,CAGAAATA,0.0181
19,AACGGCAC,0.242
20,CTCCGAAG,-0.0527
21,AATTTTTG,-0.139
22,AATCGTGG,-0.0802
23,CCCTCACG,-0.26
24,GCATGCCC,0.0837
25,GGGTTGAC,-0.137

row,Sequence,PBM E-score
1,AAAAGGAG,0.0684
2,AGACGACG,0.237
3,ATCCAGTA,0.0719
4,CCCTTGTA,-0.176
5,TAGGCACA,-0.0989
6,GTGATTTA,-0.0482
7,TCCGGGAA,-0.0708
8,CAGAGATC,-0.211
9,GCTCGCAC,0.238
10,AAGTCAAA,0.0377
11,AAGCACGG,0.111
12,TGAGGACA,-0.0702
13,AAACATTA,0.013
14,CCGCTTAG,0.118
15,CCCACAGG,-0.209
16,CGGCCGGA,-0.131
17,TCTAACCA,-0.11
18,CCTACAGC,-0.334
19,ACTGAGAT,-0.184
20,AACTAAAG,-0.0481
21,AGGGAACA,-0.22
22,TACGCATA,0.33
23,CTTGTCGC,0.12
24,TATCGAAA,0.0917
25,CAGGATTA,-0.0638

row,Sequence,PBM E-score
1,GTATCAAC,-0.139
2,CGAGCACC,0.217
3,ACGACGAT,0.364
4,AAATATGG,0.00777
5,CTTGGGCC,-0.218
6,ATCAAGGG,-0.198
7,AACTGAAA,0.0202
8,CCCAAGAC,-0.158
9,CTCTCGCA,0.0682
10,CATCTTCA,-0.263
11,CAGAGATG,-0.222
12,CCTGACTC,-0.182
13,AGACCTTC,-0.123
14,GCCCATCA,-0.0741
15,TCAATTGA,0.229
16,CCAGCGCG,0.00961
17,CATCGGTC,-0.0341
18,GCAAGAAC,0.0856
19,GCGCCCGC,-0.213
20,GCGATCCC,0.0572
21,AAACAAGT,-0.0968
22,CTGGGGCC,-0.157
23,GCAATGGA,-0.0968
24,ACTACCGG,-0.246
25,CTGCCTCA,-0.16

row,Sequence,PBM E-score
1,GATTAGCA,-0.0131
2,TCGCAACA,0.00857
3,ATTGACCA,0.0151
4,CGCTAATA,0.165
5,GTTAAACA,0.106
6,AGCCCCGC,0.134
7,AAGTGGCA,-0.264
8,GATGCCCC,-0.17
9,AGCAGTAC,0.048
10,ACCACGTC,-0.182
11,CTCTCGTA,0.453
12,GCACCCCC,-0.13
13,ACCGTGAT,-0.1
14,ACCTGACG,-0.288
15,ACCGGGTG,-0.0751
16,GGGGAACC,-0.0476
17,TGGTCACA,-0.027
18,CTGACCAA,0.065
19,AGCAACCT,-0.0882
20,AACAGGTG,-0.0122
21,CCAAATCG,0.0485
22,CCTCAGAC,-0.0866
23,ACAATACC,-0.0117
24,GGGGTACA,-0.225
25,ACCACATC,-0.0237

row,Sequence,PBM E-score
1,ATGTTGAG,-0.147
2,AACTTTGG,0.037
3,GCAATTCC,-0.143
4,AAAGTAGG,0.0124
5,AGAGGCTG,-0.357
6,GTTGACTA,-0.0282
7,ACATGTAA,0.0361
8,GCCTTGGA,-0.174
9,AACTCTCT,-0.165
10,ACTGCCCG,-0.0382
11,CTCAAACA,0.0248
12,TAGGCCCA,-0.276
13,ATATCTGC,-0.193
14,ACGTCCCT,-0.195
15,ACGATAAA,0.321
16,ATTGCACC,-0.211
17,CCTTGATA,-0.0225
18,ATATTAAT,0.0826
19,ATCTAGCA,-0.206
20,GGCGCTTA,-0.125
21,ACGACAAC,0.349
22,ATGTGAAC,0.00151
